B1: OR4K15 (parent)
chain: GUUAACGGUCAUAGGCCAUGGAAACUAGGAGCACCAUUUCGCUGCCAGUGAAGAAAUGAACAAAGAAAAUCUGGGCCAGGCAGGCAUCAAAAGAAAUAGUCUUGCGCUCAACCAGAAAGUCUGUAAUCAUUUUAAGGGUA

In the RNAGym collection of RNA variant scans (doi:10.7554/elife.90254) one finds self-cleavage data, which are given here for 167 variants.

The source gives no read counts; variants with many changes may rest on few reads.

The variants in the data set derive from B1. In words: self-cleavage, relative activity (ratio to wild type); higher = more cleavage; in vitro, sequencing; the parent is a self-cleaving ribozyme.
For the variant A11U A56C A95G, the self-cleavage worked out at 2.05. With A11U A23G U87A A114C U127C the figure was 0.02; with A11G G93A A114G, 0.38; with A11G A94U U130C U133C, 1.13.

As for A11G A47G A95G, the self-cleavage is 1.34. Consider A11G A24G G31U A82C U102G, for which the self-cleavage amounted to 0.87. Turning to U9G A56G G84U, the self-cleavage is 0.63.

With A11G U49A A111G U132A, the self-cleavage came out at 0.09. For the variant A11G U12C A116G, the self-cleavage came to 0.85. With A11U U19C A82C A129G, the self-cleavage was found to be 0.09. Then A11G A18G G41A A118G, with 0.92; and A11G U38C A68G, with 0.21.

In the case of A11G U38G A96G U120C, the self-cleavage turned out to be 0.44. With U9C U39A U72C U130C, the self-cleavage amounted to 0.6. As to A11G A63G A94U U122A A125G, the self-cleavage was 0.45. Take A11G C32U U43C A116G: the self-cleavage amounted to 0.8. On to C10U C34U A82G, for which the self-cleavage is 0.56. With A11U A24G A62G A92G the figure was 1.24. Then A11C A56G A82G A125G, with 0.23; and A11G A111G A117C U122C U131C, with 0.2; and C10U U57A A135U, with 0.91.

Take A11G A78G A89G: the self-cleavage was found to be 0.36. Then A11G A52G G65U A135G, with 0.36. Consider A11G U87A U108C, for which the self-cleavage was 0.02. Then A11G U37C A52U, with 0.9. With A11G U19C C76U A98U A126G, the self-cleavage is 0.03. As for A11U U19C A23G U43A, the self-cleavage turned out to be 0.84. In the case of C10U G53A A114G, the self-cleavage was determined as 0.54. For A11G U57C A62G, the self-cleavage came to 1.07.

With A11G A23G G48A U87A U108C, the self-cleavage stood at 0.02. On to A11G A23G A36G A64G A78U, for which the self-cleavage came to 0.2. Then A11G A52G A78U A94G A129C, with 0.08. With A11G A91G U108C U139A the figure was 0.01; with U9C U37C A89G, 1.27; with A11G A54G A69G, 0.39.

A11U A22G A62G A94G: the self-cleavage was found to be 1.26. Turning to U9C U38C A54G A116G A135C, the self-cleavage was 1.7.

On to U9G A67G A91G A134U, for which the self-cleavage is 1.06. For A11G A24G A51G A68G A95G, the self-cleavage was determined as 1.51. Take A11G U100C A117G U130A: the self-cleavage was 1.14. As to A11G U37C A69G U130C, the self-cleavage came out at 0.65.

As for A11G A86U A96U, the self-cleavage was found to be 2.09. Regarding A11G U72C A111G, the self-cleavage was 0.07. In the case of U9C U37C A98C, the self-cleavage was determined as 1.58. For A11G A67G C85U A118G, the self-cleavage worked out at 0.92. Regarding U9C U39A A47G, the self-cleavage was 1.32. With A11C A23G U26C U38A A60G A66G the figure was 1.1; with A11G U19C A23G A89U A92G U132C, 1.48; with A11G U57C C61U A62G G84C U97C U127A, 0.1. In the case of A11G A59G A62G A91G, the self-cleavage was found to be 0.19.

Regarding A11G A23G A36G U72C, the self-cleavage amounted to 0.09. Consider A11G A23G U108C, for which the self-cleavage amounted to 0. Regarding A11G A62U U70A U87C, the self-cleavage stood at 0.69. With A11G A23G A55G the figure was 1.29; with A11G A33G A56G U122A, 0.36. Turning to U9C U38C A62G A68G A90G, the self-cleavage amounted to 1.26. On to A11G U38C A69G A95U A96G U100C A129G, for which the self-cleavage was 0.16. A11C U37C A55G U87C A96G A116G U122C: the self-cleavage worked out at 0.87. A11G A18U A22U A47U: the self-cleavage came out at 0.36. With A11G A78G A135U the figure was 0.34; with A11G A24G A52G, 1.34. For A11G U19C A90G, the self-cleavage is 0.82. As for A11G A56G A62G A69U U131C A140G, the self-cleavage was 1.59. In the case of A11U C81A U87C A126G, the self-cleavage stood at 0.1. With C10U A56G U103C the figure was 0.16. On to A11U A13G A96U A117G, for which the self-cleavage is 1.16. On to A11C U39C A62G U72A C81U A92C U124C A140U, for which the self-cleavage came out at 0.03. Consider U9C U57C A92G, for which the self-cleavage turned out to be 1.52.

For U9C U57C A86G A89G A111G A118G, the self-cleavage worked out at 0. As to C10U A63G A118G, the self-cleavage is 0.4. Turning to A11G U19C U103A, the self-cleavage came out at 0.5. With A11G A22G U102A U122C U130C, the self-cleavage was found to be 0.58.

Turning to A11G U19C U70A, the self-cleavage stood at 0.65.

A11G G79A A94G A116U A117G: the self-cleavage was found to be 0. As for A11G U43C A67G A117G, the self-cleavage is 1.1. Then U9G U43C A67G, with 0.84.

Regarding A11G A64G A69G, the self-cleavage was 1.48. As for A11G G21U A51G U70C U131C, the self-cleavage worked out at 0.6. With A11G A23G A67U the figure was 1.23. With A11G A54G U87C the figure was 1.03; with A11U U19C A118G, 1.03. Consider A11G A18U A23G U122A, for which the self-cleavage was determined as 0.44. On to A11G A54G G75A A111G A117U, for which the self-cleavage was 0.03.

Consider A11U A117G U122C, for which the self-cleavage came to 1.31.

For the variant A11U G83U U132C, the self-cleavage was determined as 0.35.

Take A11G U39C A140G: the self-cleavage came to 0.95. Regarding C10A A23U A36G U43A, the self-cleavage was determined as 1.11. Consider A11U A56C U70C, for which the self-cleavage stood at 0.41. For the variant A11G A23G U43C A82U A92G U100C A125G, the self-cleavage turned out to be 0.14. With A11G A22C A47G A54G A59U the figure was 0.51. In the case of A11G A51G A59U A94G, the self-cleavage was 2.13.

On to A11U A91G A96G A118G, for which the self-cleavage stood at 1.36.

Take A11G A36U A67G A89G: the self-cleavage came out at 0.91. A11G U87A A94U: the self-cleavage was 1.46. As to U9C U37C U49A A62G, the self-cleavage was determined as 1.56. Consider A11G A54G U57C A82U A125G, for which the self-cleavage was 0.09. In the case of A11G A82U A114G A126U, the self-cleavage was determined as 0.03. With A11U A22G A33G A62G, the self-cleavage was found to be 0.98. C10U U127C U132C: the self-cleavage was 0.26. Consider A11U U12C A82G U100C, for which the self-cleavage was determined as 1.33. With A11G A36G A67G, the self-cleavage was 0.79. Then U9C U87A U108C, with 0.04; and U9C U49C A51G, with 1.3; and A11G A78G A90G U132C, with 0.29.

On to A11G A22G A62G, for which the self-cleavage amounted to 0.41.

Take A11U U120G G137U: the self-cleavage turned out to be 2. As to A11U A95G A111G A125G, the self-cleavage is 0.04. On to A11G A51G A59C A110C, for which the self-cleavage was found to be 0.06. With A11G A24G A30U U122C, the self-cleavage was 0.64. In the case of A11G A30G U102A, the self-cleavage was determined as 1.13.

For A11G A24C U49C A92G A111G A126G, the self-cleavage came out at 0.01.

Turning to A11G A18G U70C A92G, the self-cleavage was 0.75. On to A11U A54U A82U A91G U97C A125G A140G, for which the self-cleavage stood at 0.01.

With A11G A22U A86G, the self-cleavage stood at 0.82.

As for A11C U39C A91G, the self-cleavage was found to be 2.11.

As to U9G A27G A60G, the self-cleavage was determined as 0.57.

On to C10A A60G A86U A118G, for which the self-cleavage was determined as 0.82. Turning to A11G A54U C128U, the self-cleavage was 0.97. Then A11G A90G A129U, with 0.83. As for A11G A23G A52G A64U A67G A82U, the self-cleavage came out at 0.12. With A11G A22U U37C the figure was 0.81; with U9C U100C U102C A117G, 2.12.

Take A11G U43A A96G C107U: the self-cleavage was determined as 0.04.

For the variant A11G A67G A94G U108C A117G A118G U133A, the self-cleavage is 0. Turning to A11G A63G G123U U133C, the self-cleavage amounted to 1.78. As to A11U A24G A62U, the self-cleavage came out at 1.58. On to U9G A60G U72C, for which the self-cleavage worked out at 0.21. Take U9C U39A A63G A78G: the self-cleavage was determined as 0.33. As to U9C U39A A52U G83A, the self-cleavage came out at 2.14. On to C10U A11G U43A U57A U122C, for which the self-cleavage turned out to be 0.26. With C10U A23G U43C A51G the figure was 0.62. For the variant A11G A23U U87C, the self-cleavage was 0.87. For the variant A11G A66G A117G, the self-cleavage is 1.22.

For A11G U19C C42U A60U C61U, the self-cleavage is 2.08. Turning to A11G C35A A94G, the self-cleavage worked out at 1.07. A11U U19C C42G: the self-cleavage amounted to 1.63. With A11G U26C A68G the figure was 1.02; with U9C U37G A92U A98G U122C, 0; with A11C U108C U130C, 0.

As to U9G A27U A114G A125G, the self-cleavage turned out to be 0.17. Turning to A11G A36U A59G A111G, the self-cleavage was 0.07. U9C U72A A116G: the self-cleavage turned out to be 0.13. Regarding A11U A18G A52G U70C U131A U139C, the self-cleavage was 0.46. A11G A18U A24U U57C A90G: the self-cleavage was 0.85. With U9C U38C U49C A59G A116G the figure was 0.18; with A11G C17U A30G A52U A67G, 0.9; with A11G U120C A135G, 0.28. Turning to A11U A55G A59U A110G, the self-cleavage was determined as 0.07. For C10A A92G A95U A111G, the self-cleavage was determined as 0.05.

For the variant A11G A13G A24G A33U A47G A110G G136A, the self-cleavage came out at 0.54. For the variant A11G A52G C71U U122C U132C, the self-cleavage worked out at 0.12. For A11U A94G C109U A125U, the self-cleavage is 0.61.

A11U A59G A89C: the self-cleavage came out at 0.45.

Take A11G C88U G99A: the self-cleavage is 1.27.

For the variant U9C U39C U72C U87A A92G A140G, the self-cleavage was 0.26. As for U9G G28A U39C A78G, the self-cleavage was determined as 0.17.

Consider A11G A13G A62U G83U A110U A116G, for which the self-cleavage was 0.41. Regarding C10A A11U A118G A125G, the self-cleavage came out at 0.21. As for A11G A55G U100C U102A U108C A116G, the self-cleavage was 0. As to A11U U38A A111C A134U, the self-cleavage is 0.02. With U9C U43C A69G U72C A94G A134G the figure was 0.24; with A11U A60U A86G, 1.23. For the variant A11G U37C A60U, the self-cleavage stood at 1.05. As for U9C U37C C40U U102C, the self-cleavage came to 1.55.

Turning to U9C U49C A56G A110U, the self-cleavage was 0.82.

As to U9C U43C A63G, the self-cleavage was determined as 2.18.

A11C A91G U100C U102C C121A A129U: the self-cleavage turned out to be 2.9.
